Test results from the supplement of paper PMC9174493.
The other results are listed elsewhere or left out. Single values of this set are uncertain. Values with irradiation are relative to irradiated vehicle.

Key:
A549-Dual [1] = assay: NF-kB reporter (SEAP) activity, viability-corrected, relative to vehicle (fold change vs vehicle); higher = more activation of STING-IRF / NF-kB immune response reporter; settings: 10 µM
A549-Dual [2] = assay: ISRE reporter (Lucia luciferase) activity, viability-corrected, relative to vehicle (fold change vs vehicle); higher = more activation of STING-IRF / NF-kB immune response reporter; settings: 10 µM
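For NF-kB reporter (SEAP) activity, viability-corrected, relative to vehicle in this document: viability correction based on the alamar blue assay, with concentrations leaving 10% survival or less dropped.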

Row | Compound | NF-kB reporter (A549-Dual [1]; irradiation: 8 Gy/4 fr) | NF-kB reporter (A549-Dual [1]; irradiation: none) | ISRE reporter (A549-Dual [2]; irradiation: 8 Gy/4 fr) | ISRE reporter (A549-Dual [2]; irradiation: none)
1 | COCCCN1CCC(NC(=O)c2cc(Cl)c(N)c3c2OCC3)CC1.O=C(O)CCC(=O)O [Prucalopride Succinate] | 0.735 | 1.07 | 0.691 | 0.754
2 | CN(C)C1C(O)=C(C(N)=O)C(=O)C2(O)C(O)=C3C(=O)c4c(O)ccc(Cl)c4C(C)(O)C3CC12.Cl (stereo unspecified) [Chlortetracycline HCl] | 0.76 | 0.804 | 0.753 | 0.773
3 | CC(CCC(=O)NCC(=O)O)C1CCC2C3C(O)CC4CC(O)CCC4(C)C3CC(O)C12C (stereo unspecified) [Glycocholic acid] | 0.515 | 0.475 | 0.673 | 0.544
4 | NC(CO)C(=O)O (racemic) [DL-Serine] | 1.31 | 0.757 | 1.39 | 0.859
5 | O=c1[nH]c(=O)n(C2CC(O)C(CO)O2)cc1I (stereo unspecified) [Idoxuridine] | 0.55 | 1.01 | 0.445 | 0.966
6 | CCOC(=O)c1cc(O)c(O)c(O)c1 [Ethyl gallate] | 1.2 | 0.936 | 1.08 | 0.75
7 | COC(=O)C1C2CC3c4[nH]c5cc(OC)ccc5c4CCN3CC2CC(OC(=O)c2cc(OC)c(OC)c(OC)c2)C1OC (stereo unspecified) [Reserpine] | 0.689 | 0.945 | 1.07 | 1.22
8 | COc1nc2ccc(Br)cc2cc1C(c1ccccc1)C(O)(CCN(C)C)c1cccc2ccccc12.O=C(O)/C=C/C(=O)O (stereo unspecified) [Bedaquiline fumarate] | 0.807 | 1.06 | 1.12 | 2.23
9 | COc1ccc(CCNCC(O)COc2cccc(C)c2)cc1OC.Cl (stereo unspecified) [Bevantolol hydrochloride] | 0.945 | 0.747 | 1.16 | 0.808
10 | CCNC1CC(C)S(=O)(=O)c2sc(S(N)(=O)=O)cc21.Cl (stereo unspecified) [Dorzolamide HCl] | 0.958 | 0.877 | 0.892 | 0.769
11 | O=C1C=C(O)C(=O)c2ccccc21 [Lawsone] | 0.364 | 0.529 | 0.0852 | 0.162
12 | CCOC(=O)CC(=O)N1CCSC1COc1ccccc1OC (stereo unspecified) [Moguisteine] | 0.56 | 0.659 | 0.697 | 0.658
13 | CCCCCCCCCCCCCCCC(=O)OC/C=C(C)/C=C/C=C(C)/C=C/C1=C(C)CCCC1(C)C [Retinyl (Vitamin A) Palmitate] | 0.776 | 0.559 | 0.0961 | 0.144
14 | CCCC(=O)Nc1ccc(OCC(O)CNC(C)C)c(C(C)=O)c1.Cl (stereo unspecified) [Acebutolol HCl] | 0.871 | 1.04 | 0.757 | 0.951
15 | N[C@@H](Cc1c[nH]c2ccccc12)C(=O)O [L-Tryptophan] | 0.78 | 0.981 | 0.864 | 0.654
16 | COC1C(OC(C)=O)CC(=O)OC(C)C/C=C/C=C/C(OC2CCC(N(C)C)C(C)O2)C(C)CC(CC=O)C1OC1OC(C)C(OC2CC(C)(O)C(O)C(C)O2)C(N(C)C)C1O (stereo unspecified) [Acetylspiramycin (ASPM)] | 0.723 | 0.99 | 1.04 | 1.06
17 | O.O=C([O-])C(O)C(O)C(O)C(O)CO.O=C([O-])C(O)C(O)C(O)C(O)CO.[Ca+2] (stereo unspecified) [Calcium gluconate] | 1.12 | 0.708 | 1.08 | 0.654
18 | Cc1ccccc1C(OCCN(C)C)c1ccccc1.Cl (stereo unspecified) [Orphenadrine Hydrochloride] | 1.15 | 0.783 | 1.38 | 0.964
19 | CN1CCC(=C2c3ccccc3CC(=O)c3sccc32)CC1.O=C(O)/C=C/C(=O)O [Ketotifen Fumarate] | 0.648 | 0.753 | 0.847 | 0.747
20 | CC(c1ncncc1F)C(O)(Cn1cncn1)c1ccc(F)cc1F (stereo unspecified) [Voriconazole] | 0.688 | 0.912 | 0.711 | 0.652
21 | C1N2CN3CN1CN(C2)C3.O=C(O)CNC(=O)c1ccccc1 [Methenamine Hippurate] | 1.01 | 0.897 | 0.889 | 0.668
22 | CN(C)c1cc(CNCC(C)(C)C)c(O)c2c1CC1CC3C(N(C)C)C(O)=C(C(N)=O)C(=O)C3(O)C(O)=C1C2=O.Cc1ccc(S(=O)(=O)O)cc1 (stereo unspecified) [Omadacycline tosylate] | 0.624 | 0.823 | 0.649 | 0.813
23 | O=c1ncnc2[nH][nH]cc1-2 [Allopurinol] | 0.859 | 0.668 | 0.766 | 0.694
24 | Nc1ncc2ncn(CC3(OCP(=O)(O)O)CC3)c2n1 [Besifovir] | 0.992 | 0.809 | 1.01 | 0.607
25 | Nc1ccc(O)cc1 [4-Aminophenol] | 1.2 | 0.874 | 1.2 | 0.783
26 | NC(Cc1c[nH]c2ccc(O)cc12)C(=O)O (stereo unspecified) [5-hydroxytryptophan (5-HTP)] | 0.975 | 0.988 | 0.933 | 1.11
27 | C=C(c1ccc(C(=O)O)cc1)c1cc2c(cc1C)C(C)(C)CCC2(C)C [Bexarotene] | 0.117 | 0.331 | 0.0596 | 0.298

Row | Compound | NF-kB reporter (A549-Dual [1]; irradiation: 8 Gy/4 fr) | NF-kB reporter (A549-Dual [1]; irradiation: none) | ISRE reporter (A549-Dual [2]; irradiation: 8 Gy/4 fr) | ISRE reporter (A549-Dual [2]; irradiation: none)
28 | COc1ccc(/C=C\c2cc(OC)c(OC)c(OC)c2)cc1O [Combretastatin A4] | 1.27 | 1.35 | 0.16 | 0.364
29 | Cc1ccccc1-c1cc(N2CCN(C)CC2)ncc1N(C)C(=O)C(C)(C)c1cc(C(F)(F)F)cc(C(F)(F)F)c1 [Netupitant] | 1.12 | 0.713 | 1.24 | 0.734
30 | CC1OC(Oc2c(-c3ccc(O)c(O)c3)oc3cc(O)cc(O)c3c2=O)C(O)C(O)C1O (stereo unspecified) [Quercitrin] | 0.775 | 0.598 | 0.709 | 0.661
31 | N=C(N)NS(=O)(=O)c1ccc(N)cc1 [Sulfaguanidine] | 0.849 | 1.09 | 0.8 | 0.779
32 | COc1ccc(-c2cc(=O)c3c(OC)c(OC)c(OC)cc3o2)cc1OC [Sinensetin] | 0.694 | 0.85 | 0.847 | 0.955
33 | COc1cnc(NS(=O)(=O)c2ccc(N)cc2)nc1 [Sulfameter] | 0.736 | 0.869 | 0.763 | 0.738
34 | CC12CCC(=O)C=C1C1CC1C1C2CCC2(C)C1C1CC1C21CCC(=O)O1 (stereo unspecified) [Drospirenone] | 0.701 | 0.807 | 0.66 | 0.73
35 | CC(C)Nc1cccnc1N1CCN(C(=O)c2cc3cc(NS(C)(=O)=O)ccc3[nH]2)CC1.CS(=O)(=O)O [Delavirdine (mesylate)] | 0.74 | 0.731 | 0.874 | 0.936
36 | CNCCc1ccccn1.Cl.Cl [Betahistine 2HCl] | 0.984 | 0.998 | 1.05 | 0.919
37 | CN(C)CC/C=C1/c2ccccc2Sc2ccc(Cl)cc21.Cl [Chlorprothixene hydrochloride] | 0.955 | 1.51 | 0.833 | 1.13
38 | C/C=C1/C(OC2OC(CO)C(O)C(O)C2O)OC=C(C(=O)OC)C1CC(=O)OCCc1ccc(O)c(O)c1 (stereo unspecified) [Oleuropein] | 1.65 | 0.637 | 1.59 | 0.705
39 | COc1cc(OC)c(C(=O)CCCN2CCCC2)c(OC)c1.Cl [Buflomedil HCl] | 0.855 | 1.33 | 0.707 | 0.718
40 | CCCCC(CC)COC(=O)C=Cc1ccc(OC)cc1 (stereo unspecified) [Octinoxate] | 0.763 | 0.753 | 0.689 | 0.511
41 | CC(=O)O.NCc1ccc(S(N)(=O)=O)cc1 [Mafenide Acetate] | 0.836 | 1.07 | 0.853 | 0.911
42 | Cc1ccc(C(=O)c2cc(O)c(O)c([N+](=O)[O-])c2)cc1 [Tolcapone] | 0.604 | 0.799 | 0.357 | 0.554
43 | CC1CNc2c(cccc2S(=O)(=O)NC(CCCNC(=N)N)C(=O)N2CCC(C)CC2C(=O)O)C1 (stereo unspecified) [Argatroban] | 0.631 | 0.953 | 0.639 | 0.752
44 | COc1ccccc1Oc1c(NS(=O)(=O)c2ccc(C(C)(C)C)cc2)nc(-c2ncccn2)nc1OCCO.O [Bosentan Hydrate] | 0.796 | 1.45 | 0.63 | 0.859
45 | O=C(O)C(S)C(S)C(=O)O (stereo unspecified) [Succimer] | 0.641 | 0.755 | 0.6 | 0.629
46 | Cl.O=S(=O)(c1cccc2cnccc12)N1CCCNCC1 [Fasudil (HA-1077) HCl] | 0.654 | 1 | 0.436 | 0.678
47 | COc1cccc(N2CCN(C3=Nc4c(F)cccc4C(CC(=O)O)N3c3cc(C(F)(F)F)ccc3OC)CC2)c1 (stereo unspecified) [Letermovir(AIC246)] | 0.667 | 1 | 0.721 | 1.09
48 | OC[C@@H](O)[C@@H](O)[C@H](O)[C@H](O)CO [D-Mannitol] | 0.736 | 0.977 | 0.97 | 0.929
49 | CC1OC(OC2C(Oc3cc(O)c4c(c3)OC(c3ccc(O)cc3)CC4=O)OC(CO)C(O)C2O)C(O)C(O)C1O (stereo unspecified) [Naringin] | 0.723 | 0.698 | 0.824 | 0.591
50 | CCOc1ccc(Cc2cc(C3OC(CO)C(O)C(O)C3O)ccc2Cl)cc1 (stereo unspecified) [Dapagliflozin] | 0.809 | 0.844 | 0.79 | 0.77
51 | Cc1ncc([N+](=O)[O-])n1CCOC(=O)c1ccccc1 [Metronidazole Benzoate] | 1.05 | 1.11 | 0.989 | 0.894
52 | Cl.N=C(N)N [Guanidine HCl] | 0.922 | 0.801 | 1.11 | 0.83
53 | Cc1cc(C)cc(NC(=O)Cc2ccc(OC(C)(C)C(=O)[O-])cc2)c1.[Na+] [Efaproxiral Sodium] | 0.701 | 0.764 | 0.756 | 0.743
54 | CC(C)(O/N=C(\C(=O)NC1C(=O)N2C(C(=O)[O-])=C(C[n+]3ccccc3)CSC12)c1csc(N)n1)C(=O)O (stereo unspecified) [Ceftazidime] | 0.738 | 0.882 | 0.78 | 0.837
